Experimental data taken from PubChem BioAssay AID624417 (National Center for Advancing Translational Sciences (NCATS), 2012).
Screen size: about 410,000 compounds; about 6,400 (1.6%) were called active. The shares of active, inactive and inconclusive entries below differ from those in the screen. Calls come from the whole dose curve; as a rule, active = well fitted inhibition curve with a large enough effect; inconclusive = small, poorly fitted or top-dose-only effect; inactive = no such curve, though single readings can be large or run the other way. No potency is given beside an inconclusive call; the fits are too rough.
% is set by controls: 0 for no effect and ±100 for the full control effect; potency is the fitted concentration of half-maximal effect; tags give direction and shape of the fitted curve.
Note: nearly all actives have a fitted effect of over 55% in size.

These compounds were tested against Glucagon-like peptide 1 receptor (Homo sapiens) (UniProt P43220) (assay: qHTS of GLP-1 Receptor Inverse Agonists (Inhibition Mode)). Conditions: HEK293 GLP-1R CRE-luciferase, luminescence, 24 h, GLP-1R form is constitutively active; activity change, negative = inhibition: at 38.3 µM (top of the series) unless noted.
Sequence of UniProt P43220 (P43220 whole entry, looked up): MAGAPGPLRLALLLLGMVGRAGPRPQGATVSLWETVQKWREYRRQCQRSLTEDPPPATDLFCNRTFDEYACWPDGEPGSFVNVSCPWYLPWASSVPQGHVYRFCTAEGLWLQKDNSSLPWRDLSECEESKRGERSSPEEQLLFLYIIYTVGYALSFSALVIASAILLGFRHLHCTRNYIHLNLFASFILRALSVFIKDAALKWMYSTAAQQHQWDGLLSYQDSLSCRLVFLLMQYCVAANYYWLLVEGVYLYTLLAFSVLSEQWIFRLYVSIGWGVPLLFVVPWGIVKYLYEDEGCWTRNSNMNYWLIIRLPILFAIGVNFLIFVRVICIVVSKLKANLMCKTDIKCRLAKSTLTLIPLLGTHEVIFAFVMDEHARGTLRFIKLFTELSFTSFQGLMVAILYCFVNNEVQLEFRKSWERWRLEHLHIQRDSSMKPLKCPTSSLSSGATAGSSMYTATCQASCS
How it was run: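 HEK293 cells stably co-expressing a cAMP-responsive luciferase reporter and constitutively active GLP-1R were seeded, incubated 12 h, then exposed to compounds for 24 h at 37 C. Luminescence was read 12 min after detection reagent; inverse agonists lower signal.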
In the case of `COc1cc(/C=N/NC(=O)CN2CCCCC2)ccc1OCc1ccccc1`, the “activity change, negative = inhibition” value is reported as inactive: -25.6%. With `CC(Nc1nc(N2CCCCC2)nc2ccccc12)c1ccccc1` (stereo not given) the Potency was inconclusive [inhibitor, partial curve, poor fit]. With `O=C(NCc1ccccc1)c1onc(CSc2ccccn2)c1C(=O)NCc1ccccc1` the Potency was inconclusive [inhibitor, single point]. With `Cc1c(C(=O)Nc2cccc(-c3nc4ccccc4s3)c2)oc2ccc(F)cc12` the “activity change, negative = inhibition” value was inactive: 3.55%. For `CCC(c1nnnn1-c1ccc2c(c1)OCCO2)N1CCN(CCN2CCOCC2)CC1` (stereo not given), the “activity change, negative = inhibition” value was inactive: 2.69%. With `CCCN(Cc1ccc(C)cc1)C(=O)c1ccc(CNS(=O)(=O)c2ccc(C(C)=O)cc2)cc1` the Potency was inconclusive [inhibitor, partial curve, poor fit]. With `Cc1ccc(CNC(=O)c2nn(C)c3c2CSc2ccc(C)cc2-3)cc1` the Potency was inconclusive [inhibitor, single point]. `CCCC(C)NC(=O)c1cc(S(=O)(=O)N2CCCCCC2)ccc1OC` (stereo not given) was tested, and the Potency was inconclusive [inhibitor, partial curve, poor fit]. With `COc1cc(NC(=O)CN2C(=O)NC(c3ccccc3)(c3ccccc3)C2=O)cc(OC)c1` the Potency was inconclusive [inhibitor, partial curve, poor fit]. `COc1ccccc1N1CCN(C(=O)c2ccc(Nc3nc4ccccc4n4nnnc34)cc2)CC1` was tested, and the “activity change, negative = inhibition” value was inactive: -27%. With `COc1ccc(S(=O)(=O)c2c(O)c(C)cc(NC(=O)c3ccccc3)c2C(C)C)cc1` the Potency was inconclusive [inhibitor, single point]. In the case of `O=C(Nc1ccccc1F)c1oc2ccccc2c1NC(=O)c1c(F)cccc1F`, the Potency is reported as inconclusive [inhibitor, partial curve, poor fit]. In the case of `Cc1cccn2c(=O)cc(COc3cccc(NC(=O)c4cccc(Cl)c4)c3)nc12`, the “activity change, negative = inhibition” value is reported as inactive: -16.7%. For `O=C(N/N=C/c1cn(-c2ccccc2)nc1-c1cccs1)c1ccccc1F`, the “activity change, negative = inhibition” value was inactive: -1.29%. With `CCC(C)NC(=O)COc1ccc(OCc2ccccc2)cc1` (stereo not given) the Potency was inconclusive [inhibitor, single point]. In the case of `COc1ccccc1C(=O)NCC(=O)N/N=C/c1cc(Br)ccc1OCc1ccccc1`, the Potency is reported as inconclusive [inhibitor, partial curve, poor fit]. `O=C(N/N=C/c1ccc(Cl)cc1Cl)c1ccncc1` was tested, and the “activity change, negative = inhibition” value was inactive: -3.06%. `Cn1c2c(c(=O)n(C)c1=O)C(C(F)(F)F)(C(F)(F)F)N=C(CCC1CCCCC1)N2` was tested, and the Potency was inconclusive [inhibitor, single point]. In the case of `COCCC(=O)N1CCC(Oc2ccc(C(=O)NCCC3=CCCCC3)cc2)CC1`, the Potency is reported as inconclusive [inhibitor, partial curve, poor fit]. `Oc1ccc(C[C@H]2CNCCN2CCc2cc(C(F)(F)F)cc(C(F)(F)F)c2)cc1` was tested, and the Potency was inconclusive [inhibitor, partial curve, poor fit]. With `CCOc1ccc2oc(C(=O)OCC(=O)N3C(C)CCCC3C)c(C)c2c1` (stereo not given) the Potency was inconclusive [inhibitor, single point]. `Cn1c(CNc2nc3ccccc3n2CCN2CCCCC2)nc2ccccc21` was tested, and the Potency was inconclusive [inhibitor, single point]. For `O=[N+]([O-])c1ccc(N2CCN(c3ccccc3F)CC2)c(S(=O)(=O)N2CCOCC2)c1`, the Potency was inconclusive [inhibitor, single point]. For `O=c1c2ccccc2c(/C=N/n2cnnc2)c(O)n1-c1ccccc1F`, the “activity change, negative = inhibition” value was inactive: 0.951%. `Cn1nc(C(=O)NCCc2ccc(Cl)cc2)c2c1-c1ccccc1SC2` was tested, and the “activity change, negative = inhibition” value was inactive: -20.9%. `COc1cc(NC(=O)c2ccccc2Cl)ccc1NC(=O)c1cccs1` was tested, and the “activity change, negative = inhibition” value was inactive: 30.6%. `COc1cc(OC)c2c(-c3ccccc3)cc(=O)oc2c1C(CC(=O)N1CCCC1)c1ccc2c(c1)OCO2` (stereo not given) was tested, and the Potency was inconclusive [inhibitor, single point]. `CCCn1c(NC(=O)CN2C(=O)NC3(CCCCC3)C2=O)nc2ccccc21` was tested, and the Potency was inconclusive [inhibitor, full curve]. For `CCN(C(=O)COC(=O)c1ccccc1Nc1ccccc1)c1c(N)n(Cc2ccccc2)c(=O)[nH]c1=O`, the Potency was inconclusive [inhibitor, single point]. With `Cc1ccc(CCSCC(=O)O)cn1` the Potency was inconclusive [inhibitor, single point]. In the case of `Cc1nc2c(C(=O)NCCc3ccc(Cl)cc3)cnn2c(C)c1Cc1ccc(F)cc1`, the “activity change, negative = inhibition” value is reported as inactive: -29.8%. With `C[C@H](NC(=O)OC(C)(C)C)c1nnc(SCC(=O)c2ccc(Cl)cc2)o1` the Potency was inconclusive [inhibitor, partial curve]. In the case of `Cc1ccc(C(=O)NCc2ccccc2)cc1Br`, the Potency is reported as inconclusive [inhibitor, partial curve, poor fit]. `Cc1cccc(NC(=O)CSCC(=O)N2CCN(c3cccc(C(F)(F)F)c3)CC2)c1` was tested, and the Potency was inconclusive [inhibitor, partial curve, poor fit]. With `CCCNC(=O)c1cc(C2CCCCN2C(=O)OC)on1` (stereo not given) the “activity change, negative = inhibition” value was inactive: 33.7%. For `CCOC(=O)[C@@H](C)N(Cc1ccc(OC)cc1)S(=O)(=O)N(Cc1ccccc1)[C@H](C(=O)OC)C(C)C`, the Potency was inconclusive [inhibitor, partial curve, poor fit]. `Cc1ccccc1N1CCN(C2CCCN(C(=O)c3cn4c(C)cccc4n3)C2)CC1` (stereo not given) was tested, and the Potency was inconclusive [inhibitor, single point]. With `COC(=O)C1=CN(Cc2ccc(OC)cc2)C=C(C(=O)OC)C1c1cc(OC)c(OC)c(OC)c1` the Potency was inconclusive [inhibitor, single point]. `COc1cccc(C(=O)NC2CC3CCCC(C2)N3CC(=O)Nc2ccc(N(C)C)cc2)c1` (stereo not given) was tested, and the Potency was inconclusive [inhibitor, single point]. `O=C1NC[C@H](CCCCN2CCN(CCC3CCCCC3)C(=O)C2=O)N(CCc2ccc(O)cc2)C1=O` was tested, and the “activity change, negative = inhibition” value was inactive: 27.1%. With `Cc1ccc(CNC(=O)C2CCN(C(=O)Nc3ccc(C)cc3)CC2)cc1` the Potency was inconclusive [inhibitor, partial curve, poor fit]. With `COc1ccccc1Cn1c(C)c(C(=O)NCc2ccc(C#N)cc2)sc1=O` the “activity change, negative = inhibition” value was inactive: -1.74%. In the case of `Clc1cccc(OCCN2CCOCC2)c1`, the “activity change, negative = inhibition” value is reported as inactive: -2.62%. With `CCN(CC)CCNC(=O)CCc1c(C)nc2c(c(C)nn2-c2ccc(C)c(C)c2)c1C` the Potency was active: 3.98 µM. With `O=C(Nc1cccc(-c2cccc(Cl)c2)c1)C1CCN(Cc2nccs2)CC1` the Potency was inconclusive [inhibitor, partial curve, poor fit]. In the case of `CC1CCN(C(=O)Cn2c(SCC(=O)Nc3ccc(F)cc3)nc3ccccc32)CC1`, the “activity change, negative = inhibition” value is reported as inactive: -25.4%. `O=C(CCCn1c(=O)c2sccc2n(CC(=O)NCc2ccco2)c1=O)NCc1ccco1` was tested, and the “activity change, negative = inhibition” value was inactive: 0.883%. For `CCN1C(=O)[C@H]2[C@@H](c3ccc(C)cc3)N[C@]3(CCCN(Cc4ccc(C(F)(F)F)cc4)C3=O)[C@H]2C1=O`, the Potency was inconclusive [inhibitor, partial curve, poor fit]. `COc1cccc(C(=O)CN2C3=NCCCN3c3ccccc32)c1` was tested, and the Potency was inconclusive [inhibitor, single point]. For `O=C(O)c1ccc2c3c(ncnc13)-c1ccccc1C2=O`, the “activity change, negative = inhibition” value was inactive: 71.3%. For `COc1ccc(OC)c(CNC(=O)CSc2c3c(nc4cc(Cl)ccc24)CCCC3)c1`, the “activity change, negative = inhibition” value was inactive: 9.25%. For `CCC(=O)Nc1nonc1-c1nc2ccccc2n1CCC(C)C`, the Potency was inconclusive [inhibitor, full curve]. `CCOC(=O)C1CCN(C(=S)Nc2cccc(C)c2)CC1` was tested, and the Potency was inconclusive [inhibitor, partial curve, poor fit]. In the case of `CCc1ccc(C(=O)N/N=C/c2cccc3ccccc23)nc1`, the “activity change, negative = inhibition” value is reported as inactive: -18.6%. `COc1ccc(Br)cc1CN(C)C(=O)c1cc(Cl)c2c(c1)OCCO2` was tested, and the Potency was inconclusive [inhibitor, single point]. `CC(C)CCN1CCN(Cc2coc3ccccc3c2=O)CC1CCO` (stereo not given) was tested, and the Potency was inconclusive [inhibitor, single point]. With `COc1cc(NS(=O)(=O)c2cc(Br)cc3c2N(C(=O)C2CC2)CC3)cc(OC)c1` the Potency was inconclusive [inhibitor, full curve]. In the case of `CC(C)NC(=S)N1CCN(C(c2ccccc2)c2ccccc2)CC1`, the Potency is reported as inconclusive [inhibitor, full curve, poor fit]. In the case of `COc1ccccc1N1CCN(C(=O)CSc2nc3ccccc3nc2Cc2ccc(C)cc2)CC1`, the Potency is reported as inconclusive [inhibitor, single point]. With `Cc1cc(N2CCOCC2)nc2ccc(NC(=O)CCC(=O)N3CCC(C)CC3)cc12` the “activity change, negative = inhibition” value was inactive: 1.86%. `OCCN1CCN(c2nc(-c3ccccc3)c3cc(Br)ccc3n2)CC1` was tested, and the Potency was inconclusive [inhibitor, partial curve, poor fit]. `CCN(CC)c1ccc(NC(=O)CN2CCN(c3ccccn3)CC2)cc1` was tested, and the Potency was inconclusive [inhibitor, single point]. In the case of `CCOC(=O)Cn1cc(/C=N/NC(=O)c2cc3ccccc3o2)c2ccccc21`, the Potency is reported as inconclusive [inhibitor, single point]. In the case of `Cc1cc(NC(=O)CCC(=O)N(Cc2ccco2)C2(C(=O)NC3CCCCC3)CCCC(C)C2)no1` (stereo not given), the Potency is reported as inconclusive [inhibitor, single point]. For `CSc1cccc(NC(=S)N2CCC(N(C)C3CCCCC3)CC2)c1`, the Potency was inconclusive [inhibitor, partial curve, poor fit].
